# Measured values: the supplement of paper PMC4604168 (melanoma cell lines)
# This is one part of the list. Repeats are few or missing, and single values can be far off.
# Key:
# Experiment in all cases: cell count relative to DMSO control; melanoma cells; higher = more viable cells
# Conditions in all cases: library dose: low library concentration; 72 h
# WM115 = test system: WM115
# WM1716 = test system: WM1716
# WM1745 = test system: WM1745
# WM3526 = test system: WM3526
# WM3619 = test system: WM3619
# WM451Lu = test system: WM451Lu
# 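Further: cell number obtained by counting DAPI-stained nuclei in high-throughput microscope images with image analysis software, screen run in 1,536-well plates.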
SMILES,cell count (WM115),cell count (WM1716),cell count (WM1745),cell count (WM3526),cell count (WM3619),cell count (WM451Lu)
"CCCCCCCCc1ccc(CCC(N)(CO)CO)cc1 [fingolimod] + Cc1cc(N2CCOCC2)cc2[nH]c(-c3c(NC[C@@H](O)c4cccc(Cl)c4)cc[nH]c3=O)nc12 [BMS536924] (first compound 2 µM, partner dose 0.2 µM)",92.6%,92.9%,64.6%,77.7%,79.1%,101%
"NC(=O)c1ccc(N(C(N)=O)c2c(F)cccc2F)nc1-c1ccc(F)cc1F + Cc1cc(Nc2cc(N3CCN(C)CC3)nc(/C=C/c3ccccc3)n2)n[nH]1 [ENMD2076] (first compound 0.4 µM, partner dose 0.04 µM)",101%,101%,92.4%,90.4%,140%,86.1%
"NC(=O)c1ccc(N(C(N)=O)c2c(F)cccc2F)nc1-c1ccc(F)cc1F + Cc1nc(Nc2ncc(C(=O)Nc3c(C)cccc3Cl)s2)cc(N2CCN(CCO)CC2)n1 [dasatanib] (first compound 0.4 µM, partner dose 0.004 µM)",78.9%,89.2%,77.7%,82.2%,86.3%,67.6%
"COc1cc2c(Oc3ccc4[nH]c(C)cc4c3F)ncnc2cc1OCCCN1CCCC1 [cediranib] + CCN(CC)CCCCNc1ncc2cc(-c3cc(OC)cc(OC)c3)c(NC(=O)NC(C)(C)C)nc2n1 [PD173074] (first compound 0.4 µM, partner dose 0.1 µM)",102%,99.8%,92.6%,106%,100%,98.9%
"CC(C)(C)c1cnc(CSc2cnc(NC(=O)C3CCNCC3)s2)o1 + Oc1nc(-c2ccc(C(F)(F)F)cc2)nc2c1CSCC2 [XAV939] (first compound 0.01 µM, partner dose 2 µM)",93%,58.7%,73.6%,105%,74.7%,106%
"CCCCCCCCc1ccc(CCC(N)(CO)CO)cc1 [fingolimod] + Oc1cc(-c2nc(-c3ccccc3)[nH]c2-c2ccncc2)ccc1Cl [L779450] (first compound 2 µM, partner dose 0.2 µM)",80.2%,88.2%,82.7%,70.1%,78.7%,88.2%
"CN(NC(=O)CC(=O)NN(C)C(=S)c1ccccc1)C(=S)c1ccccc1 + N#Cc1c(O)c2c(-c3ccc(-c4ccccc4O)cc3)csc2[nH]c1=O [A769662] (first compound 0.006 µM, partner dose 2 µM)",86.9%,83.1%,55.9%,96.1%,78.9%,108%
"NC(=O)c1ccc(N(C(N)=O)c2c(F)cccc2F)nc1-c1ccc(F)cc1F + Oc1cc(-c2nc(-c3ccccc3)[nH]c2-c2ccncc2)ccc1Cl [L779450] (first compound 0.4 µM, partner dose 0.2 µM)",86.4%,101%,96%,87.1%,91.5%,103%
"CC(C)(C)c1cnc(CSc2cnc(NC(=O)C3CCNCC3)s2)o1 + O=C1NC(=O)/C(=C/c2ccc(-c3ccc(F)cc3O)o2)S1 [AS252424] (first compound 0.01 µM, partner dose 1 µM)",88.7%,99.1%,80.3%,113%,80.7%,117%
"CCc1ccc(CCOc2ccc(CC3SC(=O)NC3=O)cc2)nc1 (stereo not drawn) [pioglitazone] + Oc1cc(-c2nc(-c3ccccc3)[nH]c2-c2ccncc2)ccc1Cl [L779450] (first compound 2 µM, partner dose 0.2 µM)",91.4%,115%,84.5%,83%,114%,105%
"NC(=O)c1ccc(N(C(N)=O)c2c(F)cccc2F)nc1-c1ccc(F)cc1F + Cc1ccc(NC(=O)c2cccc(N(C)C)c2)cc1NC(=O)c1ccc(O)cc1 [ZM336372] (first compound 0.4 µM, partner dose 2 µM)",98.5%,93.5%,84.5%,77.7%,83.3%,100%
"NC(=O)c1ccc(N(C(N)=O)c2c(F)cccc2F)nc1-c1ccc(F)cc1F + COc1ccc2c(c1)CCC1C2CCC2(C)C(NCCCCCCN3C(=O)C=CC3=O)CCC12 [U73122] (first compound 0.4 µM, partner dose 0.4 µM)",91.4%,76.7%,74.5%,102%,88.4%,97.4%
"CCc1ccc(CCOc2ccc(CC3SC(=O)NC3=O)cc2)nc1 (stereo not drawn) [pioglitazone] + Cn1cc(/C=C2\C(=O)Nc3cccnc32)c2ccccc21 [GW441756] (first compound 2 µM, partner dose 0.4 µM)",99.2%,98.9%,94.8%,102%,110%,130%
